Assay results reported in the supplement of paper PMC12217912.
The list shows a part of the results. Sequences were assembled here from the parent chain. Values near 0.05 are background.

B1: TEV protease; numbered along this chain (parent)
chain: MGESLFKGPRDYNPISSSICHLTNESDGHTTSLYGIGFGPFIITNKHLFRRNNGTLVVQSLHGVFKVKDTTTLQQHLVDGRDMIIIRMPKDFPPFPQKLKFREPQREERICLVTTNFQTKSMSSMVSDTSCTFPSGDGIFWKHWIQTKDGQCGSPLVSTRDGFIVGIHSASNFTNTNNYFTSVPKNFMELLTNQEAQQWVSGWRLNADSVLWGGHKVFMVKPEEPFQPVKEATQL

Variants of: B1
Assay: raw area under fraction-flipped curve 0-4 h after induction (AUC4h, not background-subtracted), DNA-recorder readout of cleavage of the substrate (dimensionless); higher = more cleavage of the substrate by the protease variant
Conditions: temperature: 34 °C; time window: 0-4 h after rhamnose induction
Procedure: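 In vivo DNA recorder in E. coli TOP10(DE3) ΔrhaA at 34 °C. Each TEVp single-site mutant (parent TEVp 0) is paired with a single-site variant of the 7-mer TEVs (canonical ENLYFQ|S). The substrate sits between flexible linkers in a Bxb1-sfGFP-TEVs-SsrA fusion, so cleavage stabilises Bxb1 and speeds flipping of a recombination array, read by NGS. The value is the raw area under the fraction-flipped curve over 0-4 h after rhamnose induction (AUC4h), with ≥20 reads per time point. It is not background-subtracted; inactive controls average about 0.047.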
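Further: Bxb1 expression induced with 0.2% (w/v) L-rhamnose at OD600 near 0.5, cultures sampled hourly, flipped fraction per protease–substrate barcode pair counted by paired-end Illumina sequencing.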

| Variant | area with substrate ENLYFAS | area with substrate ENLYFCS | area with substrate ENLYFFS | area with substrate ENLYFGS | area with substrate ENLYFHS | area with substrate ENLYFIS | area with substrate ENLYFLS | area with substrate ENLYFPS | area with substrate ENLYFRS | area with substrate ENLYFSS | area with substrate ENLYFTS | area with substrate ENLYFWS | area with substrate ENLYFYS | area with substrate ENLYFDS | area with substrate ENLYFES | area with substrate ENLYFKS | area with substrate ENLYFMS | area with substrate ENLYFVS | area with substrate ENLYFNS |
| --- | --- | --- | --- | --- | --- | --- | --- | --- | --- | --- | --- | --- | --- | --- | --- | --- | --- | --- | --- |
| S121V | 0.0291 | 0.0655 | 0.0694 | 0.0576 | 0.0532 | 0.0592 | 0.0658 | 0.0482 | 0.0552 | 0.0664 | 0.0474 | 0.0592 | 0.0507 | – | – | – | – | – | – |
| M122L | 0.0698 | 0.0693 | – | 0.0469 | 0.0573 | 0.0726 | – | – | 0.0583 | – | 0.0614 | – | – | 0.0538 | 0.0792 | 0.0645 | 0.0777 | – | – |
| M122W | 0.0561 | 0.0543 | 0.0534 | – | – | 0.0572 | 0.0688 | 0.0578 | – | – | 0.043 | 0.0543 | 0.0616 | 0.0609 | 0.0619 | 0.0659 | 0.0543 | 0.0442 | – |
| S123V | 0.0693 | 0.0579 | – | – | 0.0851 | 0.0612 | – | 0.0612 | 0.0614 | 0.0728 | 0.0661 | – | 0.0676 | 0.0546 | 0.0691 | – | 0.0788 | – | 0.0526 |
| S124D | 0.0517 | 0.0633 | 0.0696 | 0.0801 | 0.0606 | 0.061 | 0.0616 | 0.0543 | – | 0.0601 | – | 0.0651 | 0.0553 | – | 0.0674 | 0.0633 | 0.0726 | – | – |
| S124M | 0.0853 | 0.0591 | 0.0761 | – | – | 0.0642 | 0.0344 | 0.0682 | – | – | 0.0878 | 0.0632 | 0.0544 | 0.0679 | 0.0622 | 0.0681 | 0.0375 | 0.0493 | – |
| S124Q | 0.0628 | 0.0597 | 0.0632 | – | – | 0.0627 | – | 0.0567 | – | – | – | 0.0616 | 0.0508 | – | 0.0758 | 0.0829 | 0.0641 | – | 0.0572 |
| S127A | 0.0502 | 0.0577 | 0.0598 | 0.0561 | 0.0498 | 0.0553 | 0.0499 | 0.0651 | 0.0628 | – | 0.0358 | 0.0511 | 0.0604 | 0.0587 | 0.0653 | 0.0645 | 0.07 | 0.0545 | 0.0723 |
| S130G | 0.0666 | 0.0589 | 0.0612 | 0.0696 | 0.0547 | 0.0564 | 0.0598 | 0.0488 | – | 0.0598 | – | – | – | – | 0.0555 | 0.0593 | 0.062 | – | 0.0643 |
| S130N | 0.0697 | 0.0609 | 0.0897 | – | – | 0.0438 | – | 0.061 | 0.0478 | 0.0401 | 0.0103 | 0.0629 | – | – | 0.0626 | 0.0654 | 0.0611 | – | – |
| S130Q | 0.0644 | 0.0565 | – | 0.0673 | 0.0516 | 0.0532 | – | 0.0457 | 0.0584 | – | 0.0624 | – | – | – | – | – | 0.0975 | – | 0.0475 |
| F133Q | 0.0706 | 0.0466 | – | – | – | 0.0629 | – | 0.0491 | 0.0502 | – | 0.0662 | 0.0558 | – | – | – | 0.0683 | 0.0647 | – | – |
| F133Y | 0.0555 | 0.0291 | – | – | 0.0795 | 0.0495 | 0.0524 | 0.0588 | – | – | – | – | – | – | – | 0.042 | 0.065 | – | – |
| S135Y | 0.0716 | 0.0567 | 0.0762 | 0.0432 | 0.0528 | 0.0515 | 0.0471 | 0.0642 | 0.0685 | 0.0619 | 0.063 | – | – | – | 0.0578 | 0.0576 | 0.0585 | 0.0607 | 0.0531 |
| D137C | 0.0607 | – | 0.0713 | – | 0.08 | – | 0.0831 | 0.0681 | – | – | 0.0591 | – | – | – | 0.0716 | 0.0676 | – | – | – |
| D137K | 0.0568 | – | 0.0594 | 0.0607 | 0.0652 | 0.0641 | – | – | 0.0307 | 0.0471 | 0.0595 | 0.0546 | 0.062 | 0.0768 | – | – | 0.0633 | – | – |
| I139F | 0.0683 | – | 0.0561 | 0.0738 | – | 0.054 | – | 0.0501 | 0.041 | 0.0649 | – | – | 0.0593 | 0.0763 | 0.0678 | 0.0556 | 0.059 | 0.053 | 0.0727 |
| I139M | 0.0494 | 0.0566 | 0.0695 | – | 0.0562 | 0.056 | 0.0437 | 0.0272 | – | – | 0.0491 | 0.0619 | 0.0595 | 0.0598 | 0.065 | 0.0708 | 0.0792 | 0.0581 | – |
| I139Y | 0.0643 | 0.0568 | 0.0688 | – | – | 0.0666 | – | 0.06 | 0.0585 | – | – | 0.0624 | 0.0618 | 0.0462 | 0.0597 | 0.0658 | 0.0801 | 0.0565 | 0.0667 |
| K142H | 0.0542 | 0.0549 | 0.0675 | 0.0556 | 0.0677 | 0.0588 | – | 0.0599 | 0.0472 | 0.0596 | 0.0621 | 0.0489 | 0.0612 | – | 0.0694 | 0.0601 | 0.0701 | 0.0748 | 0.0675 |
| H143K | 0.0599 | 0.0527 | 0.0653 | – | 0.055 | 0.0513 | 0.0529 | 0.0618 | 0.0467 | 0.0494 | 0.0613 | – | – | 0.0553 | 0.057 | 0.0581 | 0.0619 | – | 0.0574 |
| H143W | 0.0377 | – | – | 0.0514 | 0.0531 | 0.0652 | 0.0585 | 0.0628 | 0.053 | 0.0594 | 0.0503 | 0.0514 | 0.0684 | 0.0583 | 0.0592 | 0.0604 | 0.0618 | 0.0534 | 0.0561 |
| I145Y | 0.049 | – | 0.0581 | 0.073 | 0.0595 | 0.0515 | 0.0589 | 0.0624 | – | 0.0595 | 0.0555 | 0.0766 | 0.0591 | 0.068 | 0.0632 | – | – | 0.0812 | 0.0618 |
| K148P | 0.0657 | – | – | 0.0704 | – | 0.0577 | 0.0479 | – | 0.0718 | – | – | 0.0521 | – | – | 0.059 | 0.0615 | 0.0587 | – | – |
| D149K | 0.0779 | 0.0672 | 0.0667 | 0.0432 | – | 0.0525 | – | 0.0643 | 0.0568 | 0.0609 | 0.0593 | 0.059 | – | 0.0548 | 0.0993 | 0.0726 | 0.0686 | – | 0.0527 |
| D149N | 0.0362 | – | 0.0696 | 0.0544 | – | 0.0656 | 0.0426 | 0.0575 | 0.0566 | 0.0617 | 0.0701 | 0.0402 | 0.0522 | 0.0803 | 0.0751 | 0.0651 | 0.0672 | 0.0522 | 0.0688 |
